From PubChem BioAssay AID686978 (National Center for Advancing Translational Sciences (NCATS), 2013)
About 64,000 (15%) of roughly 420,000 compounds were called active. Inconclusive means that the source gave no clear call. Such entries were picked first, then a sample of the others. Calls follow the shape of the dose curve; as a rule, active = well fitted inhibition curve with a large enough effect; inconclusive = small, poorly fitted or top-dose-only effect; inactive = flat fitted curve, though single readings scatter. Potencies of inconclusive entries are left out as doubtful fits.

Assay: qHTS for Inhibitors of human tyrosyl-DNA phosphodiesterase 1 (TDP1): qHTS in cells in absence of CPT; also: nearly all actives have a fitted effect of over 55% in size
Conditions: DT40 Tdp1-/- hTDP1 cells, no CPT, ATP luminescence, 48 h; activity change, negative = growth inhibition: at 46.2 µM (top of the series) unless noted
Procedure, shortened: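 Chicken DT40 Tdp1-/- cells stably complemented with human TDP1 were seeded at 400 cells/well with DMSO in place of 20 nM camptothecin. After compound pinning, cells grew at least 48 hr at 37 °C; viability read by CellTiter-Glo luminescence.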
% is scaled to controls: 0 for no effect and ±100 for the full control effect; potency is read from the fitted curve at half-maximal effect; tags tell the direction and shape of the fitted curve.

Row | Compound | Potency | activity change, negative = growth inhibition
1 | Cc1cc(S(=O)(=O)N2CCN(c3c(C)cccc3C)CC2)ccc1F | inconclusive [inhibitor, partial curve] | –
2 | CC1(C(=O)NC2CCCCC2)Cc2ccccc2C(=O)N1Cc1ccccc1Cl (stereo not given) | inconclusive [inhibitor, single point] | –
3 | C[C@@H]1CN([C@@H](C)CO)S(=O)(=O)c2ccc(-c3cccc(C#N)c3)cc2O[C@@H]1CN(C)C(=O)c1ccc(F)cc1 | active: 20.6 µM | –
4 | O=C(NCC1CCCN(C(=O)NCc2ccccc2)C1)c1ccc2c(c1)OCO2 (stereo not given) | – | inactive: -2.58%
5 | O=C(COC(=O)CNC(=O)c1ccccc1)Nc1nc(-c2ccccc2)cs1 | – | inactive: -18.4%
6 | CC1C(=O)Nc2ccc(S(=O)(=O)N3CCN(c4cccc(Cl)c4)CC3)cc2NC1=O (stereo not given) | inconclusive [inhibitor, single point] | –
7 | Cc1ccccc1OCC(=O)NC1CCCCCCC1 | inconclusive [inhibitor, single point] | –
8 | CCOc1ccc(S(=O)(=O)N2CCCC(C(=O)NCc3ccncc3)C2)cc1C (stereo not given) | inconclusive [inhibitor, partial curve] | –
9 | C=CCN1C(c2cccc(C(F)(F)F)c2)=CS/C1=C(/C#N)c1nnc(N2CCOCC2)n1-c1ccccc1 | active: 11.6 µM | –
10 | Cc1cccc(NC(=O)CCCN2C(=S)NC(C)(C)CC2C)c1C (stereo not given) | – | inactive: -7.34%
11 | CCOC(=O)C1=C(CNC(C)(C)CC(C)(C)C)NC(=O)NC1c1cccc([N+](=O)[O-])c1 (stereo not given) | inconclusive [inhibitor, single point] | –
12 | Cc1ccc(S(=O)(=O)Oc2ccc(/C=C(/NC(=O)c3ccccc3)C(=O)Nc3ccccc3)cc2)cc1 | – | inactive: -13.1%
13 | CCOc1ccc(C(=O)NCC(c2ccc3c(c2)OCO3)N2CCOCC2)cc1 (stereo not given) | inconclusive [inhibitor, single point] | –
14 | CCOc1cccc2cc(-c3cn4cc(C)ccc4n3)c(=O)oc12 | inconclusive [inhibitor, partial curve] | –
15 | CC(=O)c1ccc(N2C(=O)N(Cc3ccccc3C#N)c3ccccc3S2(=O)=O)cc1 | inconclusive [inhibitor, partial curve, poor fit] | –
16 | Cc1noc(/C=C/c2cccs2)c1S(=O)(=O)N1CCC(C(=O)NCCCN2CCCC(C)C2)CC1 (stereo not given) | inconclusive [inhibitor, single point] | –
17 | CN(C)c1ccc(C2C=C(c3ccccc3)Nc3nnnn32)cc1 (stereo not given) | active: 18.4 µM | –
18 | COc1ccc(Cl)cc1CC=NNC(=O)c1cccc(C)c1O | active: 13 µM | –
19 | CC(=O)c1ccc(N2Cc3ccccc3C3(CCOCC3)C2=N)cc1 | – | inactive: -5.15%
20 | Cc1ccc(-n2ncc(C(=O)Nc3ccc4c(c3)OCO4)c2C2CCN(C(=O)OC(C)(C)C)CC2)c(C)c1 | active: 29.1 µM | –
21 | Cc1c(C(=O)Nc2ccc(F)c(Cl)c2)oc2ccc(S(=O)(=O)N(C)C3CCCCC3)cc12 | active: 14.6 µM | –
22 | COc1ccc(NC(=O)COC(=O)c2ccc(OC)c(S(=O)(=O)N3CCCC3)c2)cc1OC | inconclusive [inhibitor, single point] | –
23 | O=C(O)c1cn(-c2ccc(F)cc2)c(=O)c2ccccc12 | – | inactive: 1.08%
24 | Cc1oc2ccc(O)c(CN3CCCCC3)c2c1C(=O)Nc1cccc(C(F)(F)F)c1 | active: 23.1 µM | –
25 | O=C(OCCCc1cc2ccccc2c(=O)o1)c1ccccc1C(F)(F)F | inconclusive [inhibitor, single point] | –

Row | Compound | Potency | activity change, negative = growth inhibition
26 | COc1cc(-c2noc(-c3ccc(NCc4ccco4)c([N+](=O)[O-])c3)n2)cc(OC)c1OC | active: 7.31 µM | –
27 | COc1ccc(S(=O)(=O)N[C@@H](CSCc2ccccc2)C(=O)O)cc1 | – | inactive: 10.6%
28 | CN(CC(=O)Nc1ccccc1Br)C(=O)c1cccc(S(=O)(=O)N2CCc3ccccc32)c1 | inconclusive [inhibitor, single point] | –
29 | CC(C)(C)CC(=O)NCc1ccc(F)cc1 | – | inactive: -12%
30 | CCN(CC)S(=O)(=O)c1cc(C)ccc1SC | inconclusive [inhibitor, single point] | –
31 | O=C(Cc1ccc(NS(=O)(=O)c2cccc(C(F)(F)F)c2)cc1)NCCN1CCOCC1 | – | inactive: -31.3%
32 | COc1ccc(-c2nc3c(-c4ccc(F)cc4)cnn3cc2C)cc1F | active: 14.6 µM | –
33 | CCOc1cc(N2CCOCC2)c(OCC)cc1NC(=O)CN1CCC(Cc2ccccc2)CC1 | inconclusive [inhibitor, partial curve] | –
34 | CCCC(=O)Nc1ccc(C(=O)n2ccc(C)n2)cc1 | – | inactive: -14.5%
35 | CCCCNC(=O)C1CC(c2c(Cl)cccc2Cl)=NO1 (stereo not given) | active: 9.2 µM | –
36 | CC(C)(c1ccccc1)c1ccc(OCC2CO2)cc1 (stereo not given) | inconclusive [inhibitor, single point] | –
37 | Cc1ccc(NC(=O)CN2C(=O)N/C(=C/c3cccn3-c3ccc(C(=O)O)cc3)C2=O)cc1 | – | inactive: -1.82%
38 | S=c1[nH]cc(-c2ccc(Cl)cc2)n1-c1ccccc1 | inconclusive [inhibitor, partial curve, poor fit] | –
39 | O=C(O)c1ccc(/C=N/NC(=S)NCCN2CCOCC2)cc1 | – | inactive: -18.5%
40 | OCC1OC(n2cnc3c(/C=C(\O)c4ccccc4)ncnc32)C(O)C1O (stereo not given) | active: 1.46 µM | –
41 | Cc1ccc(O)c(CNc2cccc(C)n2)c1 | – | inactive: -6.86%
42 | O=c1[nH]nnc2c1cnn2-c1ccccc1 | – | inactive: -4.03%
43 | CC(C)c1nnc(NC(=O)CC23CC4CC(CC(C4)C2)C3)s1 | – | inconclusive: -32.1% [inhibitor]
44 | CCc1ccccc1OCC(=O)N1CCN(c2ncccn2)CC1 | inconclusive [inhibitor, single point] | –
45 | CCOC(=O)c1c(NC(=O)c2c(Br)cnn2CC)sc(C)c1C | inconclusive [inhibitor, partial curve] | –
46 | O=C(c1cccc(Br)c1)c1coc2ccc(O)cc12 | inconclusive [inhibitor, single point] | –
47 | O=C(Nc1ccc2c(c1)OCO2)C1Cc2c(-c3ccccc3Oc3ccccc3)ccnc2O1 (stereo not given) | inconclusive [inhibitor, single point] | –
48 | CN1CCN(C(=O)c2cc3sc4ccccc4c3s2)CC1 | inconclusive [inhibitor, single point] | –
49 | O=C(CSc1nc2ccccc2c(=O)n1Cc1ccco1)c1ccc(F)cc1 | active: 23.1 µM | –
50 | Cc1nc(-c2ccc(S(=O)(=O)N3CCN(c4cccc(C)c4C)CC3)cc2)co1 | inconclusive [inhibitor, single point] | –

Row | Compound | Potency | activity change, negative = growth inhibition
51 | COc1ccc(NC(=O)C[C@H]2C(=O)N(c3ccc(Br)cc3)C[C@@H]2c2ccc(OC)cc2)cc1 | active: 20.6 µM | –
52 | CCC(C)(C(=O)NC1CCCC1)N(Cc1cccs1)C(=O)c1ccc2c(c1)OCO2 (stereo not given) | active: 20.6 µM | –
53 | C[C@H]1CN=C(N(C)C)N1CCC1CCCC1 | inconclusive [inhibitor, single point] | –
54 | CCn1nc(NS(=O)(=O)c2ccc([N+](=O)[O-])cc2)c2cc3ccc(C)cc3nc21 | inconclusive [inhibitor, single point] | –
55 | Cc1ccc(Cl)cc1N1CCN(CC(=O)NC2CCCc3ccccc32)CC1 (stereo not given) | active: 16.4 µM | –
56 | CCCCN(CC)C(=O)c1cc2c(=O)n3ccccc3nc2n1C | inconclusive [inhibitor, single point] | –
57 | Cc1nn(C)c2c1c(C(F)(F)F)cc(=O)n2CC(=O)N1CCCCC1C (stereo not given) | inconclusive [inhibitor, single point] | –
58 | CCOC(=O)N1CCC(NC(=O)C(NS(=O)(=O)c2ccc3c(c2)CCN3C(=O)CC)C(C)C)CC1 (stereo not given) | – | inactive: -2.64%
59 | Cc1ccc(NC(=O)NCC2CC2(Cl)Cl)cc1 (stereo not given) | – | inactive: 9.57%
60 | COc1ccc(-n2nnnc2CNC(=O)C(=O)c2c(C)[nH]c3ccccc23)cc1 | inconclusive [inhibitor, single point] | –
61 | N#Cc1ccc(S(=O)(=O)N2CCN(c3nc(-c4ccccc4)nc4ccccc34)CC2)cc1 | inconclusive [inhibitor, partial curve] | –
62 | Cc1coc(NC(=O)CSc2nc(-c3ccc(Cl)cc3)cc(C(F)(F)F)c2C#N)n1 | inconclusive [inhibitor, single point] | –
63 | Cc1ccc(CNC(=O)CCS(=O)(=O)c2ccc(Br)s2)o1 | inconclusive [inhibitor, single point] | –
64 | CC1=NC(C(F)(F)F)(C(F)(F)F)C(C#N)=C(C)N1 | – | inactive: 4.43%
65 | O=C(Nc1ccc(Cl)cc1C(=O)NCc1cccnc1)c1ccco1 | – | inactive: -6.46%
66 | O=C(COc1ccccc1Cl)N(Cc1ccco1)C1CCS(=O)(=O)C1 (stereo not given) | – | inactive: -0.86%
67 | C[C@H]1COC(=O)[C@H](CC(=O)OC(C)(C)C)C/C=C\C[C@@H](CC(=O)NCCO)C(=O)N1 | – | inactive: -12.6%
68 | O=C(c1ccc(Cl)cc1)N1CCN(c2ccnc3cc(Cl)ccc23)CC1 | active: 13 µM | –
69 | O=C(OCc1nnc(-c2ccccc2Br)o1)c1ccco1 | – | inactive: 3.3%
70 | COc1cc(C2CC(=O)N(c3ccc(C)cc3)C(=O)C2)cc(OC)c1OC | active: 1.84 µM | –
71 | COc1cc2c(cc1NC(=O)COC(=O)/C=C/c1ccc([N+](=O)[O-])cc1)oc1ccccc12 | – | inactive: -14.9%
72 | COc1ccc(N(Cc2cccs2)C(=O)c2ccc(C(C)(C)C)cc2)cc1 | inconclusive [inhibitor, single point] | –
73 | O=S(=O)(NCCc1ccccc1)c1cccs1 | – | inactive: -18.1%
74 | CSc1nc(Cc2ccccc2)nc2ccccc12 | – | inactive: -13.8%
75 | COc1ccc(S(=O)(=O)Oc2ccc(C(=S)N3CCOCC3)cc2OC)cc1 | inconclusive [inhibitor, single point] | –
